The source of these data is PMC4336329 (PLoS ONE, 2015).

Each structure is given as a SMILES string. Among all 310,000 compounds or so, about 2,200 (0.71%) showed an effect of 50% or more. Effects have a minus sign here. The list shows a part of the results.

In this assay the target is human ether-à-go-go-related gene (hERG) potassium channel (human, UniProt Q12809). Put plainly: primary screen, population patch clamp on CHO cells stably expressing hERG.
Chain of human ether-à-go-go-related gene (hERG) potassium channel (Q12809 whole entry, looked up): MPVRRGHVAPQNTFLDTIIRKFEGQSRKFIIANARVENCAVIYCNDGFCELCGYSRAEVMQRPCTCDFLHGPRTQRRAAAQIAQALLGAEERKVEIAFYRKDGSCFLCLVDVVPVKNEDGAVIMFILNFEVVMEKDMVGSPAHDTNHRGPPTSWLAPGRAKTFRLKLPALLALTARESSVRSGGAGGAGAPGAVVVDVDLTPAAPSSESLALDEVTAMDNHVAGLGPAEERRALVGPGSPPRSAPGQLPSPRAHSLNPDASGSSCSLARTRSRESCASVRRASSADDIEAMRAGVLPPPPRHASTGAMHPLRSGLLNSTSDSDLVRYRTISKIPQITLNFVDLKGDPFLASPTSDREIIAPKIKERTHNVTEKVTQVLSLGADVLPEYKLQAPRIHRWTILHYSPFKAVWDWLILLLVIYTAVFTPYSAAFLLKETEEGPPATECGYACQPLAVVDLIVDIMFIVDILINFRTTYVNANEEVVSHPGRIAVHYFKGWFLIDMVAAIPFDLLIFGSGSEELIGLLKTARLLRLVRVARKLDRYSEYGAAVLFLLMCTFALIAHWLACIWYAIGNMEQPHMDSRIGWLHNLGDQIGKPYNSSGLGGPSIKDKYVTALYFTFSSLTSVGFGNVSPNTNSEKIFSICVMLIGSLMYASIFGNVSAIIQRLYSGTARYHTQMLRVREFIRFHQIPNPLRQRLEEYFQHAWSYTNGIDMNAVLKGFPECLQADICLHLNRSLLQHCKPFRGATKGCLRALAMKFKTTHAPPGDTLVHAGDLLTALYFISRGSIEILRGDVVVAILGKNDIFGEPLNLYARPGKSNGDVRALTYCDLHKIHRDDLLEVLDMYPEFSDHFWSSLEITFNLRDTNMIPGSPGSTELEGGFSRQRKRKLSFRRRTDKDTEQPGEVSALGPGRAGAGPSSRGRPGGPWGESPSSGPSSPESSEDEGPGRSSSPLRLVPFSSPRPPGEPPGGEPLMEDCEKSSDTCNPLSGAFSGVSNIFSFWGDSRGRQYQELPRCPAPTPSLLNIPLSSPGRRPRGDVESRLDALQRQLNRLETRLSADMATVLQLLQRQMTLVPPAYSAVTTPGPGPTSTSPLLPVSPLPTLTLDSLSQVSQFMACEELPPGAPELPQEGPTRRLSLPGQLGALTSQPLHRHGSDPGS
As for `Cn1cc(C(=O)c2ccccc2C(=O)O)cc1C(=O)C(Cl)(Cl)Cl`, the “hERG current change (%, negative = inhibition) at 1uM” value turned out to be 10.1%.
Then `COC(=O)c1[nH]c2ccccc2c1NC(=O)/C=C/c1ccc2c(c1)OCO2`, with 9.5%.
In the case of `CCC(C)[C@H](NC(=O)NCc1cccc(OC)c1)C(=O)OC` (some centres unmarked) it was 10.3%; in that of `CC(=O)c1nn(-c2ccc(C)cc2)cc1C(=O)c1cccc(Br)c1`, 10%.
Then `OC1CCN(c2ncnc3c2nnn3Cc2c(F)cccc2Cl)CC1`, with 2.59%; and `CN(CCCC(=O)Nc1ccc(OC(F)F)cc1)S(=O)(=O)c1ccc(F)cc1`, with -48.5%; and `COc1ccc(C(=O)O/N=C(\N)Cc2ccc(Cl)cc2)cc1OC`, with 3.31%.
Regarding `COc1ccc(C(=O)NCc2nnc(SCC(=O)Nc3nc4ccccc4s3)o2)cc1OC`, the “hERG current change (%, negative = inhibition) at 1uM” value stood at 10.5%.
Then `O=C(N/N=C/c1ccc(OC(F)F)cc1OC(F)F)c1cccc(S(=O)(=O)N2CCOCC2)c1`, with -7.97%.
In the case of `C[C@H](NC(=O)c1nc[nH]c1C(=O)NCc1ccc(CNC(=O)OC(C)(C)C)cc1)c1ccccc1` it was 9.77%; in that of `COc1ccc(-n2c(O)c(C(C)=NCCCn3ccnc3)c(=O)[nH]c2=O)cc1`, 7.06%; in that of `Cc1ccc(NC(=O)CN(C)C(=S)NC2CC2)cc1`, 15.5%.
Then `COc1cc(/C=N/Nc2nc(=O)[nH]nc2C)cc(OC)c1O`, with 9.86%; and `Nc1nnnn1CC(=O)N/N=C/c1ccccn1`, with 16.7%.
For `COc1ccc(N(CC(=O)N/N=C/c2ccco2)S(=O)(=O)c2ccccc2)cc1Cl`, the “hERG current change (%, negative = inhibition) at 1uM” value is 3.85%.
In the case of `O=C(Nc1cc(C(F)(F)F)ccc1N1CCCC1)C1=COCCO1` it was 19.4%; in that of `CCn1c(=O)c(=O)[nH]c2cc(C(=O)Nc3ccc(S(=O)(=O)N4CCCC4)cc3)ccc21`, 15%; in that of `O=C(Nc1cccn2ncnc12)c1cccc(C(F)(F)F)c1`, 10.5%.
Then `CCCNC(=O)CC(NS(=O)(=O)c1ccc(NC(C)=O)cc1)C(C)C` (centres unmarked), with 10.5%; and `CCOC(=O)C1CCN(C(=S)NC2CC3C=CC2C3)CC1` (centres unmarked), with 3.95%; and `CCOc1cc(C(=O)Nc2nnc(CC)s2)ccc1OCC(=O)N1CCOCC1`, with 13.3%.
Turning to `COc1ccc(OC)c(NC(=O)CC(Cc2ccccc2OC)C(=O)O)c1` (centres unmarked), the “hERG current change (%, negative = inhibition) at 1uM” value is reported as 15.3%.
Consider `CCC(C)N(C(=O)Cn1nnc2ccccc21)C(C(=O)NCc1ccco1)c1cccc(OC)c1` (centres unmarked), for which the “hERG current change (%, negative = inhibition) at 1uM” value is given as -2.59%.
Take `CN(C)c1ccc(/C=N/n2c(COc3ccccc3)n[nH]c2=S)cc1`: the “hERG current change (%, negative = inhibition) at 1uM” value worked out at 19%.
Then `COc1ccc(S(=O)(=O)N2CCCCC2)cc1NC(=O)Cn1cnc2ccccc2c1=O`, with 12.3%; and `O=C1N/C(=N\S(=O)(=O)Cc2ccccc2)S/C1=C/c1cccc([N+](=O)[O-])c1`, with 28.7%; and `CC1CN(S(=O)(=O)c2ccc(C(=O)N(CCCN(C)C)c3nc4c(Cl)cccc4s3)cc2)CC(C)O1.Cl` (centres unmarked), with -8.33%.
In the case of `COc1ccc(C2=NCCn3nc4cc(C(F)(F)F)ccc4c32)cc1` it was 3.19%.
Then `O=C(c1ccco1)N1CCCC(c2nc3c(nnn3Cc3ccc(Cl)cc3Cl)c(=O)[nH]2)C1` (centres unmarked), with 11.9%; and `COc1ccc(-n2c(-c3ccc(OC)c(OC)c3)n[nH]c2=S)cc1`, with 9.62%.
On to `CC(C)N=c1scc(-c2ccco2)n1/N=C/c1ccc(O)c(O)c1`, for which the “hERG current change (%, negative = inhibition) at 1uM” value was -5.94%.
In the case of `Cc1ccc2nc(/N=C(\N)NC(=O)NC3CCCCC3)nc(C)c2c1` it was -0.339%.
In the case of `O=C(Cn1cc([N+](=O)[O-])ccc1=O)N1CCCc2ccccc21` it was 14.1%.
Then `O=C(CN(Cc1ccc(F)cc1)C(=O)Cn1nnc2ccccc21)NCC1CCCO1` (centres unmarked), with 9.55%.
Regarding `COc1cc(S(=O)(=O)N(Cc2ccccn2)Cc2ccccc2Cl)ccc1-n1cnnn1`, the “hERG current change (%, negative = inhibition) at 1uM” value is 4.86%.
For `O=C(OCC(=O)N1CCCC1)c1ccc(S(=O)(=O)Nc2ccccc2)cc1`, the “hERG current change (%, negative = inhibition) at 1uM” value is reported as -0.807%.
Then `O=C(CNC(=O)c1ccccc1F)c1ccccc1`, with 15.3%; and `CCCN(CCC)CC(O)CN(c1cc([N+](=O)[O-])ccc1OC)S(=O)(=O)c1ccccc1.Cl` (centres unmarked), with -13.3%; and `CCN1CCN(c2nc(Nc3ccccc3F)nc(N)c2[N+](=O)[O-])CC1`, with -15.7%.
Then `COCCN1C(=O)C(=O)/C(=C(/O)c2ccc(S(=O)(=O)N3CCCCC3)cc2)C1c1ccc(OC)c(OC)c1` (centres unmarked), with 5.26%; and `COc1ccc2nc(NC(=O)Nc3ccccc3)sc2c1`, with 0.308%.
As to `CN(C)c1ccc(C(=O)N2CCNC(=O)C2CC(=O)Nc2ccc(F)cc2)cc1` (centres unmarked), the “hERG current change (%, negative = inhibition) at 1uM” value was 11.7%.
In the case of `NC(=S)Nc1ncc(C(F)(F)F)cc1Cl` it was 8.78%.
Then `CCOC(=O)Cn1cc(C#N)c2cccc(CC)c21`, with 7.9%; and `CC(=O)SCC(=O)N=c1sc2cc(F)ccc2n1C`, with 5.74%.
In the case of `Nc1nc(-c2ccc3c(c2)OCCO3)c(CC(=O)O)s1` it was 15.7%; in that of `c1ccc(-c2cc3nccc(-c4ccccn4)n3n2)cc1`, 7.53%.
Regarding `CCOC(=O)c1ccc(NC(=S)N(CCCN2CCN(C)CC2)Cc2cccs2)cc1`, the “hERG current change (%, negative = inhibition) at 1uM” value is on record as -7.16%.
In the case of `CC(NC(=O)[C@@H](NC(=O)[C@@H]1Cc2ccccc2CN1)C(C)C)c1ccccc1` (some centres unmarked) it was 13.9%; in that of `O=C(NC(=S)NCCCN1CCOCC1)c1ccc([N+](=O)[O-])cc1`, 2.92%.
With `CCOC(=O)N1CCC(NC(=O)c2oc3c(c2C)-c2[nH]ncc2CC3)CC1`, the “hERG current change (%, negative = inhibition) at 1uM” value is 16%.
In the case of `COc1ccc(Cc2nnc(NC(=O)c3c(-c4ccccc4)noc3C)s2)cc1` it was -5.73%.
In the case of `O=c1[nH]c(=O)n(Cc2ccco2)c2c1C(C(F)(F)F)(C(F)(F)F)N=C(C1CCCCC1)N2` it was 4.51%; in that of `COc1ccc(S(=O)(=O)N2CCN(c3nn(C)c(=O)n(C)c3=O)CC2)cc1`, -13%.
In the case of `CC(=O)N1CCN=C1SCc1c(F)cccc1Cl` it was -2.41%; in that of `CC(C)(C)NC(=O)CN(C(=O)C1CSC(=O)C1)c1ccccc1F` (centres unmarked), -7.39%.
`O=c1cc(O)c2c(=O)n(-c3ccccc3)c3c(c2o1)CCCCCC3`: the “hERG current change (%, negative = inhibition) at 1uM” value was 6.79%.
In the case of `CCOC(=O)C(C)n1cnc2scc(-c3ccc(C)cc3)c2c1=O` (centres unmarked) it was 12.6%; in that of `Cc1cc(Oc2nc3ccccn3c(=O)c2/C=C(\C#N)C(=O)NC2CCS(=O)(=O)C2)ccc1Cl` (centres unmarked), 12%.
In the case of `CCN1C(=O)[C@H]2[C@@H](c3ccc(SC4CCCCC4)cc3)N[C@@](CC(C)C)(C(=O)OC)[C@H]2C1=O.O=C(O)C(F)(F)F` it was 7.81%.
Turning to `CCOC(=O)C1=C(N)OC2=C(C(=O)CCC2)C1c1cccnc1` (centres unmarked), the “hERG current change (%, negative = inhibition) at 1uM” value was 11.8%.
Then `CC1(C)CC(=O)C2=C(C1)N(C1CCCCC1)C(=O)C2(O)C(F)(F)F` (centres unmarked), with 8.42%; and `CC(=O)Nc1c(OC(C)=O)ccc2c(C)cc(=O)oc12`, with 5.64%; and `O=C(Cc1c(F)cccc1Cl)N1CCN(C(=O)c2ccco2)CC1`, with 3.01%.
In the case of `O=C(O)C12C3CCCC1C32c1ccccc1` (centres unmarked) it was 20.1%.
As to `Cc1ccc(CNC(=O)C2CCC(=O)N2Cc2ccc(F)cc2)cc1` (centres unmarked), the “hERG current change (%, negative = inhibition) at 1uM” value worked out at 8.23%.
In the case of `O=C(OCc1cccc([N+](=O)[O-])c1)c1cc(=O)[nH]c2ccccc12` it was 12.9%.
Then `CC(=O)N1CCN(C(=O)c2ccc(C(=O)c3ccccc3)cc2)CC1`, with 14.4%.
Then `O=C(COc1ccc2c3c(c(=O)oc2c1)CCCC3)N1CCN(c2ccccc2)CC1`, with 13.9%.
Turning to `Cc1cc2cc3c(cc2nc1SCC(=O)Nc1nc(C)c(C)s1)OCO3`, the “hERG current change (%, negative = inhibition) at 1uM” value turned out to be 6.12%.
Regarding `CC1CCCN(C(=O)/C(=C/c2ccco2)NC(=O)c2ccccc2)C1` (centres unmarked), the “hERG current change (%, negative = inhibition) at 1uM” value is recorded as -4.9%.
Then `Cc1ccccc1NC(=O)c1cc(S(=O)(=O)N2CCCCC2)cs1`, with -0.961%; and `COc1ccc(C(=O)CSc2nnc(CNC(=O)c3ccco3)n2C)cc1`, with 4.04%; and `O=C(O)c1ccc(-n2cccc2)cc1O`, with 3.45%.
In the case of `CCCC(=O)Nc1ccc(-c2nc3ncccc3o2)cc1` it was 10.1%; in that of `Cc1ccc(C(=O)Nc2ccc(O)cc2C(=O)O)cc1C`, 10.7%.
In the case of `COC(=O)c1ccc(-c2nc(CN3CCN(Cc4cccc(C)c4)CC3)c(C)o2)cc1` it was 8.93%; in that of `CCC(C)(C)C1CCc2[nH]nc(C(=O)NC3CCCC3)c2C1` (centres unmarked), 11.2%; in that of `CC(=O)c1c(C)[nH]c(C(=O)Nc2cc(F)ccc2C)c1C`, 20.5%.
Take `COC(=O)C1C(=O)N2CCCSC2=C(C#N)C1c1cccs1` (centres unmarked): the “hERG current change (%, negative = inhibition) at 1uM” value was determined as 11.8%.
In the case of `CC1(C)CC(=O)C2=C(C1)N(CCN1CCOCC1)C1=C(C(=O)CC(C)(C)C1)C2c1cccc(Cl)c1`, the “hERG current change (%, negative = inhibition) at 1uM” value was -17.5%.
In the case of `O=C(Nc1ccnn1C1CCN(C2CCCC2)CC1)c1ccccc1` it was 13.3%.
In the case of `COc1ccc(Oc2ccc(NC(=O)c3ccccc3C)cc2)cc1` it was 6.57%.
`Cc1nc(SCc2cccnc2)[nH]c(=O)c1C`: the “hERG current change (%, negative = inhibition) at 1uM” value was 12.3%.
In the case of `CCc1ccc(NC(=O)CSc2nc(=O)n(CCN(C)C)c3c2CCCC3)cc1` it was 3.35%.
In the case of `O=C(NCC(c1cccs1)N1CCOCC1)c1ccccc1NS(=O)(=O)c1ccc(Br)cc1` (centres unmarked) it was -10.5%.
